According to US20230322928A1, “TREATMENT METHODS USING CTLA-4 AND PD-1 BISPECIFIC ANTIBODIES” (MedImmune, LLC, priority 2022, published 2023):
Where two headings read alike, the source gives them in different places.

Tests used:
nonsquamous NSCLC = experiment: Phase 1 study: antitumor activity in non-squamous NSCLC expansion cohorts (with carboplatin/pemetrexed); type: in vivo, human; settings: First line Non-squamous NSCLC
Source text: The primary endpoint was OR, which is commonly used in oncology studies evaluating subjects with advanced solid tumors, including RCC or NSCLC. The primary objective for the squamous NSCLC expansion cohort was to evaluate the safety and tolerability of MEDI5752 in subjects with advanced solid tumors when combined with chemotherapy.
PD-L1 status will be assessed in subjects who have provided archival or fresh tumor biopsies. For the NSCLC expansion cohorts, PD-L1 positive is defined as baseline PD-L1 expression with tumor cell ≥1% and PD-L1 negative is defined as baseline PD-L1 expression with tumor cell <1%.

T cell clones = experiment: Expanded T cell clones by T cell receptor sequencing (TCRseq); settings: 750 mg and 1500 mg MEDI5752 in combination with chemotherapy
CD4+ T cell = settings: 750 mg and 1500 mg MEDI5752 in combination with chemotherapy
[1] = 500 mg with Carboplatin and Pemetrexed, N = 33
[2] = 750 mg with Carboplatin and Pemetrexed, N = 72
[3] = 750 mg with Carboplatin and Taxane, N = 18
[4] = 1500 mg with Carboplatin and Pemetrexed, N = 20

## Pembrolizumab [reference compound]
Nonsquamous NSCLC; Pembrolizumab + carboplatin/pemetrexed (n = 21)
  Median PFS: 8.9 months

## MEDI5752: anti-PD-1/CTLA-4 bispecific antibody; light chain SEQ ID NO:1 and heavy chain SEQ ID NO:2 (PD-1), light chain SEQ ID NO:3 and heavy chain SEQ ID NO:4 (CTLA-4)
T cell clones
  Newly expanded T cell clones at cycle 2, versus pembrolizumab in combination with chemotherapy: higher proportion
CD4+ T cell
  CD4+ T cell proliferation at cycle 1 day 8, versus pembrolizumab in combination with chemotherapy: higher increase
[1]
  Subjects with at least one MEDI5752-related AE (All Grades): 72.7%
  Subjects with at least one MEDI5752-related Grade 3 or 4 AE: 18.2%
[2]
  Subjects with at least one MEDI5752-related AE (All Grades): 80.6%
  Subjects with at least one MEDI5752-related Grade 3 or 4 AE: 36.1%
[3]
  Subjects with at least one MEDI5752-related AE (All Grades): 77.8%
  Subjects with at least one MEDI5752-related Grade 3 or 4 AE: 44.4%
[4]
  Subjects with at least one MEDI5752-related AE (All Grades): 100%
  Subjects with at least one MEDI5752-related Grade 3 or 4 AE: 70%
Monotherapy 225 mg, N = 10
  Subjects with at least one MEDI5752-related AE (All Grades): 70%
  Subjects with at least one MEDI5752-related Grade 3 or 4 AE: 10%
Monotherapy 500 mg, N = 38
  Subjects with at least one MEDI5752-related AE (All Grades): 86.8%
  Subjects with at least one MEDI5752-related Grade 3 or 4 AE: 31.6%
Monotherapy 750 mg, N = 40
  Subjects with at least one MEDI5752-related AE (All Grades): 95%
  Subjects with at least one MEDI5752-related Grade 3 or 4 AE: 55%
Monotherapy 1500 mg, N = 39
  Subjects with at least one MEDI5752-related AE (All Grades): 94.9%
  Subjects with at least one MEDI5752-related Grade 3 or 4 AE: 59%
Monotherapy, All, N = 178
  Subjects with at least one MEDI5752-related AE (All Grades): 89.3%
  Subjects with at least one MEDI5752-related Grade 3 or 4 AE: 46.1%
Nonsquamous NSCLC; MEDI5752 1500 mg + carboplatin/pemetrexed (n = 20)
  Median PFS: 15.1 months
